Laboratory results reported in PubChem BioAssay AID1347073 (National Center for Advancing Translational Sciences (NCATS), 2019).
Out of some 45,000 compounds screened, about 200 (0.44%) were called active. About 7% were inconclusive and are not listed. The call rests on the fitted dose curve; in most records, active means well fitted activation curve with a large enough effect; inconclusive means small, poorly fitted or top-dose-only effect; inactive means no such curve, though single readings can be large or run the other way. This is one part of the list.

Assay: qHTS of TDP-43 Inhibitors: NCGC Sytravon Library Screen; further: 0% is about no effect; nearly all actives have a fitted effect of over 55% in size
Conditions: yeast TDP-43 toxicity rescue, BacTiter-Glo growth, 24 h; series mostly up to 46.1 µM; growth rescue (activation): at the top concentration
Method in brief: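 TDP-43-expressing yeast, pregrown in raffinose, seeded at OD600 0.02 in galactose medium with compound for 24 hr at 30 deg C. Growth read by BacTiter-Glo luminescence, so rescue of toxicity appears as activation.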

SMILES | growth rescue (activation)
CCOc1ccc(NC(=O)C(Cc2ccccc2)N2C(=O)c3cccc4cccc(c34)C2=O)cc1 (centres undefined) | inactive: 9.75%
COc1ccc(-n2c(SCC(=O)NNC(=O)c3ccc(C)cc3)nnc2-c2ccncc2)cc1 | inactive: 6.78%
Cc1cc(C)n(CCc2nc(-c3ccc(-c4ccccc4)cc3)cs2)n1 | inactive: 17.1%
O=C(O)CSCC(=O)NCc1ccc(Cl)cc1 | inactive: 1.51%
CCN(c1ccccc1)P(=O)(Nc1ccccc1)Nc1ccccc1 | inactive: 0.0907%
O=C(O)/C=C/C(=O)NCCc1cccc(Cl)c1 | inactive: -11.5%
CCN(Cc1ccccc1)C(=O)COC(=O)c1cc(=O)[nH]c2ccccc12 | inactive: -1.7%
O=C(c1ccccn1)N1CCN(S(=O)(=O)c2ccccc2)CC1 | inactive: -1.16%
CC(C)c1ccc(NC(=O)c2n[nH]c(=O)c3ccccc23)cc1 | inactive: 5.94%
CCOC(=O)N1CCN(C(=O)c2cc3c(-c4cccc(OC)c4)nn(C)c3s2)CC1 | inactive: 35%
Cc1cnc([N+](=O)[O-])n1CCOC(=O)c1cccc(F)c1 | inactive: 26.1%
O=S(=O)(c1ccc2c(c1)CCC2)N1CCNCC1 | inactive: -11.2%
O=C(Cn1nc(-c2cccs2)ccc1=O)Nc1ccc(Br)cc1 | inactive: 0.906%
CC1(C)CC(=O)c2cc(C(=O)NC3CCSC3=O)c(=O)n(-c3ccc(Cl)cc3)c2C1 (centres undefined) | inactive: -22.5%
CCN(CC)c1ncnc2c1ncn2[C@H]1CN(Cc2ccc(-c3ccccc3)cc2)C[C@@H](CO)O1 | inactive: -1.1%
COC(=O)c1ccc(C(=O)OC)c(NC(=O)COC(=O)c2ccc(OC)c(OC)c2OC)c1 | inactive: -14.1%
Cc1cccc(NC(=O)c2ccc3nccnc3c2)c1C | inactive: 29.8%
COc1ccc(OC)c(C(=O)CN2C(=O)C(=O)N(C3CCCC3)C2=O)c1 | inactive: 16.2%
COc1cccc(-c2cc3nc(NCc4cccnc4)n(C)c(=O)c3s2)c1 | inactive: 4.58%
CCN(CC)CCCNC(=O)c1ccc(S(=O)(=O)Nc2ccc(C)c(C)c2)cc1 | inactive: 19.9%
Cn1c(CNc2ccccc2)nc2ccccc21 | inactive: -27.3%
Cc1ccccc1C(=O)NCCCCc1ccccc1 | inactive: 15.6%

SMILES | growth rescue (activation)
O=S(=O)(Nc1nc2c(s1)CCCC2)c1ccc2ccccc2c1 | inactive: 6.16%
Cc1ccc(N2C(=O)c3ccccc3C2C(=O)c2ccc(O)cc2O)cc1 (centres undefined) | inactive: -3.76%
CCOC(=O)c1ccc2c(c1)[n+](CC)c(C)n2-c1ccccc1 | inactive: 11.6%
CCC(Cc1ccccc1)NC(=O)C1=C(C)C(=O)OC12CCC(C)CC2 (centres undefined) | inactive: 9.45%
CSCCC(NS(=O)(=O)c1ccccc1F)C(=O)NCC(c1ccco1)N(C)C (centres undefined) | inactive: 5.71%
CCOc1ccccc1CN1C(=O)NC2(CCCCCC2)C1=O | inactive: 15.8%
C=CCNC(=S)Nc1cc(Cl)ccc1OC | inactive: -11.2%
COc1ccc(CN(C)Cc2cc(=O)oc3cc(C)c(C(C)C)cc23)cc1OC | inactive: -7.85%
O=[N+]([O-])c1ccc(O)c2cccnc12 | inactive: 21.7%
COc1ccc(CN(C)C(=O)/C=C/c2ccc(S(=O)(=O)N3CCOCC3)cc2)cc1F | inactive: 17%
CCC(Sc1nnc(-c2ccco2)n1C)C(=O)Nc1nnc(C)s1 (centres undefined) | inactive: 10.5%
CC(=O)NC(CC(=O)O)c1ccc([N+](=O)[O-])cc1 (centres undefined) | inactive: -9.76%
C=CCc1c(N(CC)CC)nc(C)[nH]c1=O | inactive: 24.1%
COc1cc(OC)c(OC)cc1CN1CCN(Cc2ccc(SC)cc2)CC1 | inactive: -18%
CSc1ccccc1NC(=O)COC(=O)CCC(=O)c1ccc(F)cc1 | inactive: -19.2%
Cc1ccc(C)n1C(CC(=O)O)c1ccc(C#N)cc1 (centres undefined) | inactive: -19.3%
CC1CCC2(CC1)NC(=O)N(Cc1nc(-c3ccccc3)no1)C2=O (centres undefined) | inactive: 24.2%
Cc1cc(C)n2c(nc3ccccc32)c1C(=O)NN | inactive: 1.38%
Cc1cc(C)c(NC(=O)CS(=O)CC(=O)NCCN2CCCCCC2)c(C)c1 (centres undefined) | inactive: -11.6%
O=c1[nH]n2cc(-n3cc([N+](=O)[O-])cn3)cnc2c1Br | inactive: -0.0047%
O=c1c2cc(N3CCOCC3)ccc2[nH]c(=S)n1Cc1ccccc1Cl | inactive: 7.87%
Cc1ccc(S(=O)(=O)N2CCCC(C(=O)NCCc3ccccc3)C2)cc1 (centres undefined) | inactive: -5.41%

SMILES | growth rescue (activation)
CC1(C(=O)NS(=O)(=O)c2cccc(Cl)c2)CCN1C(=O)Cc1ccc(Cl)cc1Cl (centres undefined) | inactive: 0.515%
COCCNC(=O)C(c1ccc(C)cc1)N(CCOC)C(=O)CCC(=O)Nc1nccs1 (centres undefined) | inactive: 16%
O=C(Nc1ccc(Br)cc1)c1ccc(-n2cnnn2)cc1 | inactive: 9.13%
O=C(COc1ccccc1[N+](=O)[O-])OC1CCS(=O)(=O)C1 (centres undefined) | inactive: 2.41%
Cc1sc2nc(CN(C(=O)NCc3ccccc3)C3CCCC3)[nH]c(=O)c2c1C | inactive: 8.31%
CCc1ccc(CNCCNC(=O)c2ccco2)cc1 | inactive: -36.6%
CCCC12CN3CC(C)(CN(C1)C3c1ccc3c(c1)OCO3)C2=O (centres undefined) | inactive: 27.8%
O=C(CC1Nc2ccccc2NC1=O)Nc1ccccc1 (centres undefined) | inactive: 17.6%
CN(C(=O)CSc1cc(Cl)ccc1Cl)C1CCS(=O)(=O)C1 (centres undefined) | inactive: 0.372%
Cc1ccc(OC(C)C(=O)N(Cc2cccs2)C2CCS(=O)(=O)C2)cc1C (centres undefined) | inactive: -14.7%
COc1ccc(CCNC(=O)C2CC(=O)N(c3ccc(C)cc3)C2)cc1OC (centres undefined) | inactive: 5.62%
O=C(Nc1nc(-c2cccc([N+](=O)[O-])c2)cs1)C(c1ccccc1)c1ccccc1 | inactive: -23.1%
COc1cc(C(=O)Nc2sc3c(c2C(=O)O)CCC3)cc(OC)c1OC | inactive: 5.38%
COc1ccc(-n2cc(C(=O)Nc3cc([N+](=O)[O-])ccc3OC)c3ccccc3c2=O)cc1 | inactive: 24.3%
O=C(COC(=O)c1cc(-c2cccs2)nn1-c1ccccc1)Nc1cc([N+](=O)[O-])ccc1Cl | inactive: -2.12%
O=C(c1cccc(S(=O)(=O)N2CCN(c3ccc(F)cc3)CC2)c1)N1CCCC1 | inactive: -25.5%
Cc1cccc(C(=O)NC(=S)Nc2ccccc2C(=O)O)c1 | inactive: -13%
O=C(CNS(=O)(=O)c1ccccc1)NCc1ccco1 | inactive: 10.3%
O=C(O)Cc1ccc(NC(=O)COc2ccc3ccccc3c2)cc1 | inactive: -6.75%
CC(C)(C)c1ccc(C(=O)NCCC(=O)NNC(=O)COc2ccccc2F)cc1 | inactive: -2.83%
O=S(=O)(c1cccc(C(F)(F)F)c1)N1CCC(c2nc3ccccc3[nH]2)CC1 | inactive: 4.33%
O=C1CCC(C(=O)OCC(=O)Nc2cc(Cl)ccc2F)=NN1 | inactive: 20.2%

SMILES | growth rescue (activation)
Cc1cccc(CCNC(=O)CN(C)S(=O)(=O)c2cnc[nH]2)c1 | inactive: 11.5%
O=C(CSc1nnc(NC(=O)c2ccc(F)cc2)s1)NC1CCCC1 | inactive: -4.56%
O=C(NCc1ccco1)c1ccc(Cl)s1 | inactive: 18.9%
O=Cc1ccc(OCC(=O)NCC2CCCO2)cc1 (centres undefined) | inactive: -5.36%
CCN(CC)CCN(CC(=O)N(C1CCCCC1)C1CCCCC1)C(=O)c1cccnc1 | inactive: 2.72%
COc1cccc(/C=C/C(=O)OCC(=O)Nc2cccc(S(=O)(=O)N(C)C)c2)c1 | inactive: -14.1%
Cc1cc(C)n(/N=C/c2cccc([N+](=O)[O-])c2)c(=O)c1 | inactive: 0.0706%
COc1ccc(/C=C\c2nc(=O)c3ccccc3o2)cc1 | inactive: -13.8%
Cc1nc2cc(C(=O)N3CCc4ccccc43)ccc2n1-c1ccc(F)c(F)c1 | inactive: 28.6%
NS(=O)(=O)c1ccc(CCNC(=O)c2ccccc2OCc2ccc(F)cc2)cc1 | inactive: 6.99%
CCOC(=O)c1cc(C#N)c(SCc2cccc3ccccc23)nc1C | inactive: -25.8%
O=C(N/N=C/c1ccccc1C(=O)O)C(=O)N1CCCCC1 | inactive: 8.07%
Cc1ccc(NC(=O)c2ccc3c(c2)CCN3S(C)(=O)=O)cc1C | inactive: 3.31%
O=C(CCCNC(=O)c1ccc(Cl)cc1)NCc1ccc(F)cc1 | inactive: 9.21%
CCn1c(C)cs/c1=N\C(=S)Nc1ccccc1C | inactive: 5.65%
Nc1nc2n(n1)C(c1ccco1)CC(c1ccc(Cl)cc1Cl)N2 (centres undefined) | inactive: -3.08%
CSc1ccccc1C(=O)NC1CCSc2ccccc21 (centres undefined) | inactive: 34.8%
O=C(N/N=C/c1cccs1)c1cccnc1 | inactive: 0.651%
Cc1ccc2nc(Cl)c(C3CC(c4cccs4)=NN3C(=O)CCCC(=O)O)cc2c1 (centres undefined) | inactive: 2.03%
O=c1c(C(c2ccc(O)cc2)c2c(O)nc3n(c2=O)CCCS3)c(O)nc2n1CCCS2 | inactive: 1.88%
O=C(Cc1ccccc1)Nc1ccc(NC(=O)c2cccc(Cl)c2)cc1 | inactive: 9.83%
Cc1cc(C)n2nc(SCC(=O)N3CCC(C)CC3)nc2n1 | inactive: 13.9%

SMILES | growth rescue (activation)
COc1ccccc1OCC(=O)Nc1ccc2c(c1)OCO2 | inactive: 17.3%
Cc1ccccc1C(=O)NCCCNC(=O)c1cnccn1 | inactive: 12%
O=C(c1ccco1)N1CCC(c2nc3c(nnn3Cc3ccc(F)cc3)c(=O)[nH]2)CC1 | inactive: 25.9%
CNc1c(NS(=O)(=O)c2ccc(C3CCCCC3)cc2)c(=O)oc2ccccc12 | inactive: -5.71%
NC(=O)COC(=O)c1ccc(S(=O)(=O)N2CCCCCC2)cc1 | inactive: 14.7%
O=C(CSc1ccccc1[N+](=O)[O-])NC1CCS(=O)(=O)C1 (centres undefined) | inactive: -6.79%
CCOC(=O)Cn1nc(C)c(NC(=O)COc2ccc(OC)cc2)c1C | inactive: 22.9%
c1cc(-c2ccc(CN3CCOCC3)cc2)n2ccnc2c1 | inactive: -5.59%
COc1ccc(OC)c(-n2c(-c3ccc(O)cc3O)n[nH]c2=S)c1 | inactive: 14.2%
COc1ccccc1C(=O)NNC(=S)Nc1ccccc1 | inactive: 1.58%
CC(Oc1ccccc1)c1nnc(SCC(=O)NC2CC2)n1C (centres undefined) | inactive: 3.75%
O=C(Cn1nnc(-c2ccccc2Cl)n1)Nc1cccc(S(=O)(=O)N2CCCC2)c1 | inactive: -8.21%
Cc1ccc(Cn2nnc3c(=O)[nH]c(C4CCN(S(=O)(=O)Cc5ccccc5)CC4)nc32)cc1 | inactive: -7.66%
O=S(=O)(CCc1ccncc1)C1Cc2cccc3cccc1c23 (centres undefined) | inactive: -15.1%
C/C(=N\NC(=O)c1ccccc1)c1ccc(C)c([N+](=O)[O-])c1 | inactive: 20.2%
COc1ccc(CN(C(=O)c2ccc(-c3ccccc3)[nH]2)C(C(=O)NC(C)(C)C)c2ccncc2)cc1 (centres undefined) | inactive: 15.2%
COc1ccccc1NS(=O)(=O)c1ccc2c(c1)OCCO2 | inactive: -5.17%
NC(c1csc(Nc2ccccn2)n1)C1CCCCC1 (centres undefined) | inactive: 1.55%
CCc1cccc(NC(=S)N(CCCN2CCOCC2)C(C)c2cc3cccc(OC)c3o2)c1 (centres undefined) | inactive: 12.5%
O=Cc1cccn1-c1nccc(-c2ccco2)n1 | inactive: 20.4%
O=C(N/N=C/c1ccc([N+](=O)[O-])o1)c1cn(-c2ccccc2)nc1-c1ccc(F)cc1 | inactive: 0.817%
